# Assay results published in the supplement of paper PMC8728848.
# Some of the results follow.
# How the values were obtained:
# Experiment in all cases: glycan array binding signal (z-score within array); higher = stronger binding
# Conditions in all cases: glycan notation: IUPAC condensed, linker removed
# [1] = molecular target: Fuc(a1-2)Gal(b1-4)[Fuc(a1-3)]GlcNAc(b1-2)Man(a1-3)[Fuc(a1-2)Gal(b1-4)[Fuc(a1-3)]GlcNAc(b1-2)Man(a1-6)]Man(b1-4)GlcNAc(b1-4)[Fuc(a1-6)]GlcNAc
# Procedure, shortened: (§1)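 From the Consortium for Functional Glycomics database, 3228 arrays were curated, keeping only those whose protein sequence was available. Binding is given as a within-array Z-score averaged across arrays sharing a protein sequence and across linkers. Negative Z-scores can be read as non-binding.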
# [2] = molecular target: Fuc(a1-2)Gal(b1-4)[Fuc(a1-3)]GlcNAc(b1-2)[Fuc(a1-2)Gal(b1-4)[Fuc(a1-3)]GlcNAc(b1-4)]Man(a1-3)[Fuc(a1-2)Gal(b1-4)[Fuc(a1-3)]GlcNAc(b1-2)Man(a1-6)]Man(b1-4)GlcNAc(b1-4)GlcNAc
# Procedure, shortened: as §1
# [3] = molecular target: Fuc(a1-2)Gal(b1-4)[Fuc(a1-3)]GlcNAc(b1-3)Gal(b1-4)[Fuc(a1-3)]GlcNAc
# Procedure, shortened: as §1
# [4] = molecular target: Fuc(a1-2)Gal(b1-4)[Fuc(a1-3)]GlcNAc(b1-3)Gal(b1-4)[Fuc(a1-3)]GlcNAc(b1-3)Gal(b1-4)[Fuc(a1-3)]GlcNAc
# Procedure, shortened: as §1
# [5] = molecular target: Fuc(a1-2)Gal(b1-4)[Fuc(a1-3)]GlcNAc(b1-3)GalNAc
# Procedure, shortened: as §1
# [6] = molecular target: Fuc(a1-2)Gal(b1-4)[Fuc(a1-3)]GlcNAc(b1-3)[Neu5Ac(a2-6)Gal(b1-4)GlcNAc(b1-6)]Gal(b1-4)Glc
# Procedure, shortened: as §1
# [7] = molecular target: Fuc(a1-2)Gal3S(b1-4)GlcNAc
# Procedure, shortened: as §1
# [8] = molecular target: Fuc(a1-2)Gal6S(b1-3)GlcNAc
# Procedure, shortened: as §1
# [9] = molecular target: Fuc(a1-2)Gal6S(b1-3)GlcNAc6S
# Procedure, shortened: as §1
# Fuc(a1-2)Gal6S(b1-4)Glc = molecular target: Fuc(a1-2)Gal6S(b1-4)Glc
# Procedure, shortened: as §1
# [10] = molecular target: Fuc(a1-2)Gal6S(b1-4)Glc6S
# Procedure, shortened: as §1
# Fuc(a1-2)[Gal(a1-3)]Gal = molecular target: Fuc(a1-2)[Gal(a1-3)]Gal
# Procedure, shortened: as §1
# [11] = molecular target: Fuc(a1-2)[Gal(a1-3)]Gal(b1-3)GalNAc
# Procedure, shortened: as §1
# [12] = molecular target: Fuc(a1-2)[Gal(a1-3)]Gal(b1-3)GalNAc(b1-3)Gal(a1-4)Gal(b1-4)Glc
# Procedure, shortened: as §1
# [13] = molecular target: Fuc(a1-2)[Gal(a1-3)]Gal(b1-3)GlcNAc
# Procedure, shortened: as §1
# [14] = molecular target: Fuc(a1-2)[Gal(a1-3)]Gal(b1-3)GlcNAc(b1-2)Man(a1-3)[Fuc(a1-2)[Gal(a1-3)]Gal(b1-3)GlcNAc(b1-2)Man(a1-6)]Man(b1-4)GlcNAc(b1-4)GlcNAc
# Procedure, shortened: as §1
# [15] = molecular target: Fuc(a1-2)[Gal(a1-3)]Gal(b1-3)GlcNAc(b1-2)Man(a1-3)[Fuc(a1-2)[Gal(a1-3)]Gal(b1-3)GlcNAc(b1-2)Man(a1-6)]Man(b1-4)GlcNAc(b1-4)[Fuc(a1-6)]GlcNAc
# Procedure, shortened: as §1
# [16] = molecular target: Fuc(a1-2)[Gal(a1-3)]Gal(b1-3)GlcNAc(b1-3)GalNAc
# Procedure, shortened: as §1
# [17] = molecular target: Fuc(a1-2)[Gal(a1-3)]Gal(b1-3)GlcNAc(b1-6)GalNAc
# Procedure, shortened: as §1
# [18] = molecular target: Fuc(a1-2)[Gal(a1-3)]Gal(b1-4)Glc
# Procedure, shortened: as §1
# [19] = molecular target: Fuc(a1-2)[Gal(a1-3)]Gal(b1-4)GlcNAc
# Procedure, shortened: as §1
# [20] = molecular target: Fuc(a1-2)[Gal(a1-3)]Gal(b1-4)GlcNAc(b1-2)Man
# Procedure, shortened: as §1
# [21] = molecular target: Fuc(a1-2)[Gal(a1-3)]Gal(b1-4)GlcNAc(b1-2)Man(a1-3)[Fuc(a1-2)[Gal(a1-3)]Gal(b1-4)GlcNAc(b1-2)Man(a1-6)]Man(b1-4)GlcNAc(b1-4)GlcNAc
# Procedure, shortened: as §1
# [22] = molecular target: Fuc(a1-2)[Gal(a1-3)]Gal(b1-4)GlcNAc(b1-2)Man(a1-3)[Fuc(a1-2)[Gal(a1-3)]Gal(b1-4)GlcNAc(b1-2)Man(a1-6)]Man(b1-4)GlcNAc(b1-4)[Fuc(a1-6)]GlcNAc
# Procedure, shortened: as §1
# [23] = molecular target: Fuc(a1-2)[Gal(a1-3)]Gal(b1-4)GlcNAc(b1-3)GalNAc
# Procedure, shortened: as §1
# [24] = molecular target: Fuc(a1-2)[Gal(a1-3)]Gal(b1-4)GlcNAc(b1-3)[Fuc(a1-2)[Gal(a1-3)]Gal(b1-4)GlcNAc(b1-6)]GalNAc
# Procedure, shortened: as §1
# [25] = molecular target: Fuc(a1-2)[Gal(a1-3)]Gal(b1-4)GlcNAc(b1-6)GalNAc
# Procedure, shortened: as §1
# [26] = molecular target: Fuc(a1-2)[Gal(a1-3)]Gal(b1-4)[Fuc(a1-3)]Glc
# Procedure, shortened: as §1
# [27] = molecular target: Fuc(a1-2)[Gal(a1-3)]Gal(b1-4)[Fuc(a1-3)]GlcNAc
# Procedure, shortened: as §1
# [28] = molecular target: Fuc(a1-2)[Gal(a1-3)]Gal(b1-4)[Fuc(a1-3)]GlcNAc(b1-3)GalNAc
# Procedure, shortened: as §1
# [29] = molecular target: Fuc(a1-2)[Gal(a1-4)]Gal(b1-4)GlcNAc
# Procedure, shortened: as §1
# [30] = molecular target: Fuc(a1-2)[GalNAc(a1-3)]Gal
# Procedure, shortened: as §1
# [31] = molecular target: Fuc(a1-2)[GalNAc(a1-3)]Gal(b1-3)GalNAc(a1-3)[Fuc(a1-2)]Gal(b1-4)GlcNAc
# Procedure, shortened: as §1
# [32] = molecular target: Fuc(a1-2)[GalNAc(a1-3)]Gal(b1-3)GalNAc(b1-3)Gal(a1-4)Gal(b1-4)Glc
# Procedure, shortened: as §1
# [33] = molecular target: Fuc(a1-2)[GalNAc(a1-3)]Gal(b1-3)GlcNAc
# Procedure, shortened: as §1
# [34] = molecular target: Fuc(a1-2)[GalNAc(a1-3)]Gal(b1-3)GlcNAc(b1-2)Man(a1-3)[Fuc(a1-2)[GalNAc(a1-3)]Gal(b1-3)GlcNAc(b1-2)Man(a1-6)]Man(b1-4)GlcNAc(b1-4)GlcNAc
# Procedure, shortened: as §1
# [35] = molecular target: Fuc(a1-2)[GalNAc(a1-3)]Gal(b1-3)GlcNAc(b1-2)Man(a1-3)[Fuc(a1-2)[GalNAc(a1-3)]Gal(b1-3)GlcNAc(b1-2)Man(a1-6)]Man(b1-4)GlcNAc(b1-4)[Fuc(a1-6)]GlcNAc
# Procedure, shortened: as §1
# [36] = molecular target: Fuc(a1-2)[GalNAc(a1-3)]Gal(b1-3)GlcNAc(b1-3)GalNAc
# Procedure, shortened: as §1
binder,measurement,setting,value
FimA-N1 (Actinomyces oris) (protein) MHHHHHHSSGVDLGTENLYFQSNATETPNYGNIKTDATGSLVIHKHLTGGGKDIGTPTGTAQNADDKGPAVEGVVFTAYPITDINLKDPAGWDTISNLSRTGVPDSACANPAAPTLGAHQFGTPKVSPATTKEGLATITEMPVQAYLVCETTTPGDIVQKAKPFVVTIPHPNTAAGADGQWIYDVNVYPKNEAIDVDKTIQAQK,glycan array binding signal (z-score),[1],0.219
same,glycan array binding signal (z-score),[2],0.284
same,glycan array binding signal (z-score),[3],-0.314
same,glycan array binding signal (z-score),[4],-0.302
same,glycan array binding signal (z-score),[5],-0.422
same,glycan array binding signal (z-score),[6],0.028
same,glycan array binding signal (z-score),[7],0.009
same,glycan array binding signal (z-score),[8],-0.104
same,glycan array binding signal (z-score),[9],-0.124
same,glycan array binding signal (z-score),Fuc(a1-2)Gal6S(b1-4)Glc,-0.338
same,glycan array binding signal (z-score),[10],0.072
same,glycan array binding signal (z-score),Fuc(a1-2)[Gal(a1-3)]Gal,0.245
same,glycan array binding signal (z-score),[11],-0.371
same,glycan array binding signal (z-score),[12],0.011
same,glycan array binding signal (z-score),[13],1.81
same,glycan array binding signal (z-score),[14],0.124
same,glycan array binding signal (z-score),[15],-0.179
same,glycan array binding signal (z-score),[16],-0.183
same,glycan array binding signal (z-score),[17],0.418
same,glycan array binding signal (z-score),[18],-0.323
same,glycan array binding signal (z-score),[19],-0.143
same,glycan array binding signal (z-score),[20],-0.282
same,glycan array binding signal (z-score),[21],-0.32
same,glycan array binding signal (z-score),[22],0.004
same,glycan array binding signal (z-score),[23],-0.094
same,glycan array binding signal (z-score),[24],-0.259
same,glycan array binding signal (z-score),[25],-0.219
same,glycan array binding signal (z-score),[26],-0.347
same,glycan array binding signal (z-score),[27],-0.008
same,glycan array binding signal (z-score),[28],-0.379
same,glycan array binding signal (z-score),[29],-0.094
same,glycan array binding signal (z-score),[30],-0.184
same,glycan array binding signal (z-score),[31],-0.184
same,glycan array binding signal (z-score),[32],-0.132
same,glycan array binding signal (z-score),[33],-0.281
same,glycan array binding signal (z-score),[34],-0.408
same,glycan array binding signal (z-score),[35],-0.344
same,glycan array binding signal (z-score),[36],-0.262
